Assay results from the supplement of paper PMC11876631.
± gives the standard deviation of the averaged measurements. Laboratory Escherichia coli strains with one amino-acid change in an essential protein, pooled on minimal glucose agar with carbenicillin or gentamicin at twice the control MIC (plus kanamycin and chloramphenicol for the plasmids), 48 h. Fold change of barcode share against drug-free plates; higher = less susceptible. Active = above 20 in both replicates (the paper's putatively resistant). '<' = one read or none on drug, '>' = one read or none on a drug-free plate. Shares are relative, so most strains fall below 1 when a few take over. Listed are strains with at least 15 reads on both drug-free plates, and hits; most hits rest on fewer reference reads. Replicate rank correlation about 0.5. Edits are read from barcodes.

B1: pdxB V313Q (protein)
chain: MKILVDENMPYARDLFSRLGEVTAVPGRPIPVAQLADADALMVRSVTKVNESLLAGKPIKFVGTATAGTDHVDEAWLKQAGIGFSAAPGCNAIAVVEYVFSSLLMLAERDGFSLYDRTVGIVGVGNVGRRLQARLEALGIKTLLCDPPRADRGDEGDFRSLDELVQRADILTFHTPLFKDGPYKTLHLADEKLIRSLKPGAILINACRGAVVDNTALLTCLNEGQKLSVVLDVWEGEPELNVELLKKVDIGTSHIAGYTLEGKARGTTQVFEAYSKFIGHEQHVALDTLLPAPEFGRITLHGPLDQPTLKRLQHLVYDVRRDDAPLRKVAGIPGEFDKLRKNYLERREWSSLYVICDDASAASLLCKLGFNAVHHPAR
B2: pdxH V55A (protein)
chain: MSDNDELQQIAHLRREYTKGGLRRRDLPADPLTLFERWLSQACEAKLADPTAMVAATVDEHGQPYQRIVLLKHYDEKGMVFYTNLGSRKAHQIENNPRVSLLFPWHTLERQVMVIGKAERLSTLEVMKYFHSRPRDSQIGAWVSKQSSRISARGILESKFLELKQKFQQGEVPLPSFWGGFRVSLEQIEFWQGGEHRLHDRFLYQRENDAWKIDRLAP
B3: pdxH M53Q (protein)
chain: MSDNDELQQIAHLRREYTKGGLRRRDLPADPLTLFERWLSQACEAKLADPTAQVVATVDEHGQPYQRIVLLKHYDEKGMVFYTNLGSRKAHQIENNPRVSLLFPWHTLERQVMVIGKAERLSTLEVMKYFHSRPRDSQIGAWVSKQSSRISARGILESKFLELKQKFQQGEVPLPSFWGGFRVSLEQIEFWQGGEHRLHDRFLYQRENDAWKIDRLAP
B4: pdxH F81W (protein)
chain: MSDNDELQQIAHLRREYTKGGLRRRDLPADPLTLFERWLSQACEAKLADPTAMVVATVDEHGQPYQRIVLLKHYDEKGMVWYTNLGSRKAHQIENNPRVSLLFPWHTLERQVMVIGKAERLSTLEVMKYFHSRPRDSQIGAWVSKQSSRISARGILESKFLELKQKFQQGEVPLPSFWGGFRVSLEQIEFWQGGEHRLHDRFLYQRENDAWKIDRLAP
B5: pdxH V55D (protein)
chain: MSDNDELQQIAHLRREYTKGGLRRRDLPADPLTLFERWLSQACEAKLADPTAMVDATVDEHGQPYQRIVLLKHYDEKGMVFYTNLGSRKAHQIENNPRVSLLFPWHTLERQVMVIGKAERLSTLEVMKYFHSRPRDSQIGAWVSKQSSRISARGILESKFLELKQKFQQGEVPLPSFWGGFRVSLEQIEFWQGGEHRLHDRFLYQRENDAWKIDRLAP
B6: pdxH M53P (protein)
chain: MSDNDELQQIAHLRREYTKGGLRRRDLPADPLTLFERWLSQACEAKLADPTAPVVATVDEHGQPYQRIVLLKHYDEKGMVFYTNLGSRKAHQIENNPRVSLLFPWHTLERQVMVIGKAERLSTLEVMKYFHSRPRDSQIGAWVSKQSSRISARGILESKFLELKQKFQQGEVPLPSFWGGFRVSLEQIEFWQGGEHRLHDRFLYQRENDAWKIDRLAP
B7: pdxH V55Q (protein)
chain: MSDNDELQQIAHLRREYTKGGLRRRDLPADPLTLFERWLSQACEAKLADPTAMVQATVDEHGQPYQRIVLLKHYDEKGMVFYTNLGSRKAHQIENNPRVSLLFPWHTLERQVMVIGKAERLSTLEVMKYFHSRPRDSQIGAWVSKQSSRISARGILESKFLELKQKFQQGEVPLPSFWGGFRVSLEQIEFWQGGEHRLHDRFLYQRENDAWKIDRLAP
B8: pdxH V183A (protein)
chain: MSDNDELQQIAHLRREYTKGGLRRRDLPADPLTLFERWLSQACEAKLADPTAMVVATVDEHGQPYQRIVLLKHYDEKGMVFYTNLGSRKAHQIENNPRVSLLFPWHTLERQVMVIGKAERLSTLEVMKYFHSRPRDSQIGAWVSKQSSRISARGILESKFLELKQKFQQGEVPLPSFWGGFRASLEQIEFWQGGEHRLHDRFLYQRENDAWKIDRLAP
B9: pdxH M53A (protein)
chain: MSDNDELQQIAHLRREYTKGGLRRRDLPADPLTLFERWLSQACEAKLADPTAAVVATVDEHGQPYQRIVLLKHYDEKGMVFYTNLGSRKAHQIENNPRVSLLFPWHTLERQVMVIGKAERLSTLEVMKYFHSRPRDSQIGAWVSKQSSRISARGILESKFLELKQKFQQGEVPLPSFWGGFRVSLEQIEFWQGGEHRLHDRFLYQRENDAWKIDRLAP

Target: Escherichia coli (laboratory strain)
Assay: barcode share on antibiotic plates over drug-free plates; higher = less susceptible
Settings: antibiotic: carbenicillin; 2× MIC (3.1 µg/mL)
Method: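 A pool of E. coli strains, each edited to carry one amino-acid change in an essential protein, was grown for 48 h on minimal glucose agar with or without antibiotic; strain barcodes were sequenced; mean of two replicates.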

Protein | fold change of barcode share
B1 | 0.68 ± 0.16
B2 | 0.328 ± 0.014
B3 | 0.291 ± 0.08
B4 | 0.184 ± 0.025
B5 | 0.903 ± 0.54
B6 | 1.47 ± 0.66
B7 | 0.724 ± 0.044
B8 | 0.339 ± 0.035
B9 | 0.526 ± 0.29

Same assay, conditions: antibiotic: gentamicin; 2× MIC (MIC 0.45 µg/mL)

Protein | fold change of barcode share
B1 | < 0.0123
B2 | 0.00971 ± 0.0092
B3 | 0.00262 ± 0.00044
B6 | 0.00509 ± 0.0059
B7 | 0.00913 ± 0.007
B8 | 0.017 ± 0.012
B9 | 0.00337 ± 0.00045
